According to PubChem BioAssay AID624172 (National Center for Advancing Translational Sciences (NCATS), 2012):
Among all 380,000 compounds or so, about 25 (0.007%) were called active. This list was built around the results that the source calls inconclusive (neither active nor inactive); the mix of calls is not that of the screen. Calls follow the shape of the dose curve; as a rule, active = well fitted activation curve with a large enough effect; inconclusive = small, poorly fitted or top-dose-only effect; inactive = no such curve, though single readings can be large or run the other way. No potency is given beside an inconclusive call; the fits are too rough.
For activation in this document: % of control where 0% means no effect.
Potency is read from the fitted curve at half-maximal effect; tags tell the direction and shape of the fitted curve.

The compounds below were run against Glucagon-like peptide 1 receptor (Homo sapiens) (UniProt P43220) (assay: qHTS of GLP-1 Receptor Agonists). Conditions: HEK293 GLP-1R CRE-luciferase, luminescence, 4-6 h, cells express a hypersensitive GLP-1R form; activation: at 45.6 µM (top of the series) unless noted.
Chain of UniProt P43220 (P43220 whole entry, looked up): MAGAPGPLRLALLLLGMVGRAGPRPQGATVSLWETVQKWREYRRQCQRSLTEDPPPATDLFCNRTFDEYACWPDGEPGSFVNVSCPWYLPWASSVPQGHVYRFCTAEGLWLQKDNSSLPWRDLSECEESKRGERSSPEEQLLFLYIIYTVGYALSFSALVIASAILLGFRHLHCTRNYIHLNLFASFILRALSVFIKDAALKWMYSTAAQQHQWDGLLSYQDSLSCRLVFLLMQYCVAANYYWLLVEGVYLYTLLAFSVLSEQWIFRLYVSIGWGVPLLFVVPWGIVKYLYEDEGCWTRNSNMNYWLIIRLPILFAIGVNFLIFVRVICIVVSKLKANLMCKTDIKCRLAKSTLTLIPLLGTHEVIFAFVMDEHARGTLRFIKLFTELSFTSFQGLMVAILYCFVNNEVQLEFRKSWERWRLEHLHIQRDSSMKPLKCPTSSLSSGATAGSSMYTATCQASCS
Text: The overall goal of this project was to develop a novel assay for discovering small molecule ligands for class B1 G protein-coupled receptors (GPCRs). Very few agonists (or inverse agonists) with generally weak activity for this entire group of physiologically important receptors are known to date. To establish proof-of-principle that this critical bottleneck can be overcome with a suitable screening approach, our studies focused on the class B1 receptor for glucagon-like peptide-1 (GLP-1R), a potential therapeutic target for diabetes and neurodegenerative disease.
The assay was developed in a "mix and measure" format using a cell-based functional readout. Toward this goal, stably transfected HEK293 cell clones were established that co-express (i) a cAMP-responsive luciferase reporter gene, and (ii) GLP-1Rs that upon ligand interaction either stimulate (agonists) or inhibit (inverse agonists) luciferase activity. In different cell lines to be used for screening, expressed GLP-1Rs are specifically optimized for high sensitivity detection of either weak agonists (hypersensitive receptor) or inverse agonists (constitutively active receptor mutant). In addition, control cell lines were developed that express either the cAMP-responsive reporter gene without recombinant GLP-1Rs (enabling initial exclusion of GLP-1R independent effects of candidate probes), or the reporter gene together with wild type GLP-1Rs (for confirmation of probe activity at this receptor), or the reporter gene in combination with the constitutively active orphan receptor GPR119 (enabling initial exclusion of GLP-1R independent inhibitory effects of candidate inverse agonists).
To that end, this assay was optimized for 1536-well format and screened against the MLSMR.
NIH Molecular Libraries Probe Production Network [MLPCN]
NIH Chemical Genomics Center [NCGC]
PI Name: Martin Beinborn, Tufts Medical Center
In a white solid 1536-well plate, 6 uL of cells are dispensed in DMEM without phenol red, 10% Nu serum, and 1% pen-strep medium. The plates are then incubated for 12 hours at 37 deg C at 5% CO2 before 23 nL of compounds are added. After a 4-6 hr incubation at37 deg C and 5% CO2, 3 uL of detection reagent are added and after a 12 min incubation at RT, a luminescent read is obtained on the ViewLux.
`OC(c1cccc(Cl)c1)c1ncc(-c2ccc(Oc3ccccc3)cc2)[nH]1` (stereo not given) was tested, and the Potency was “inactive”. For `CCOc1ncccc1C(=O)Nc1ccc(S(=O)(=O)Nc2nccs2)cc1`, the Potency was inconclusive [activator, partial curve, poor fit]. With `N#Cc1c(N)sc2c1CCN(C(=O)OCc1ccccc1)C2` the Potency was inconclusive [activator, single point]. With `CSc1ccc(CN2CCC2(C)C(=O)NCc2ccc3c(c2)OCO3)cc1` (stereo not given) the Potency was inconclusive [activator, partial curve, poor fit]. `COc1ccc(-c2cc(C(F)(F)F)n3ncc(C(=O)N(C)Cc4ccccc4)c3n2)cc1` was tested, and the Potency was inconclusive [activator, partial curve]. With `Cc1nn(CC(=O)N2c3ccccc3NC(=O)C2(C)C)c(C)c1[N+](=O)[O-]` the Potency was “inactive”. `CCOc1ccc(S(=O)(=O)N(CCO)CCO)cc1-c1nc2c(C(C)(C)C)nn(C)c2c(=O)[nH]1` was tested, and the Potency was inconclusive [activator, partial curve, poor fit]. With `COc1cc(/C=N/NC(=O)NC23CC4CC(CC(C4)C2)C3)ccc1O` the Potency was inconclusive [activator, partial curve]. `CN1c2ccccc2N(C)C1(C)c1cccc2ccccc12` was tested, and the Potency was “inactive”. With `O=C(N/N=C/C(Br)=C\c1ccccc1)c1cccs1` the Potency was inconclusive [activator, partial curve, poor fit]. For `Fc1ccc(CN2CCCCCCC2)cc1`, the Potency was “inactive”. `CC(=O)Nc1cc(-c2cccc(C)c2)cn2c(-c3ccc(S(C)(=O)=O)cc3)cnc12` was tested, and the Potency was inconclusive [activator, partial curve, poor fit]. `CCOC(=O)C1CCN(c2ncnc3c2oc2ccc(Br)cc23)CC1` was tested, and the Potency was inconclusive [activator, partial curve, poor fit]. In the case of `Cc1ccc(C)c(NC(=O)COC(=O)c2cccc3c2C(=O)c2ccccc2C3=O)c1`, the Potency is reported as inconclusive [activator, full curve, poor fit]. For `Cc1nc(C(=O)N2CCc3c([nH]c4ccccc34)C2c2cc(F)ccc2F)cs1` (stereo not given), the activation was inconclusive: 50.4% [activator]. In the case of `Cc1c(OC(C)C(=O)N2C[C@H]3C[C@@H](C2)c2cccc(=O)n2C3)ccc2c3c(c(=O)oc12)CCCC3` (stereo not given in full), the Potency is reported as “inactive”. With `O=C(CN1CCN(c2ccccc2Cl)CC1)NC1CCCc2ccccc21` (stereo not given) the Potency was “inactive”. In the case of `CCOC(=O)c1c(NC(=O)CCN2CCOCC2)sc(C)c1-c1ccccc1`, the Potency is reported as inconclusive [activator, partial curve, poor fit]. `N#CC1=C(N)Oc2n[nH]c(-c3cccs3)c2C1c1ccoc1` (stereo not given) was tested, and the Potency was “inactive”. `Cc1cc2occ(CC(=O)NCc3cccs3)c2cc1C(C)C` was tested, and the Potency was inconclusive [activator, single point]. In the case of `Cc1ccc(C)c(C(=O)COC(=O)c2cc(S(=O)(=O)N3CCOCC3)ccc2F)c1`, the Potency is reported as “inactive”. For `COCc1cc(C)nc2sc(C(=O)Nc3ccc(OC)cc3)c(N)c12`, the Potency was inconclusive [activator, partial curve, poor fit]. In the case of `CC(=O)Nc1cccc(-c2cc(N3CCN(CCO)CC3)n3nccc3n2)c1`, the Potency is reported as “inactive”. In the case of `CCOC(=O)C1=C(COC(=O)c2cc(S(=O)(=O)N(C)C)ccc2C)NC(=O)NC1C` (stereo not given), the Potency is reported as inconclusive [activator, single point]. With `COc1cc2c(cc1OC)CN(C(=O)c1oc3ccccc3c1C)CC2` the Potency was inconclusive [activator, partial curve]. In the case of `Oc1ccccc1/C=N/NC(=S)NC1CC2C=CC1C2` (stereo not given), the Potency is reported as inconclusive [activator, partial curve, poor fit]. With `CCCCCn1c(=O)[nH]c2cc(C(=O)N3CCN(c4cccc(Cl)c4)CC3)ccc2c1=O` the Potency was “inactive”. For `COc1ccc(CONS(=O)(=O)c2ccc(NC(C)=O)cc2)cc1Cl`, the Potency was “inactive”. `Cc1nn(S(=O)(=O)c2ccc(C(C)(C)C)cc2)c(C)c1S(=O)(=O)N1CCOCC1` was tested, and the Potency was “inactive”. `COc1cc(NC(=S)Nc2cccnc2)cc(OC)c1OC` was tested, and the Potency was “inactive”. For `CC1CCN(CC(=O)n2c3c(c4ccccc42)CCCC3)CC1`, the Potency was inconclusive [activator, single point]. With `COC(=O)c1cc(C#N)c(N2CCOCC2)nc1C` the activation was inconclusive: 51.6% [activator]. In the case of `Cc1cccc(C)c1-n1nnnc1C1c2ccccc2C(=O)N1CCc1ccccc1F` (stereo not given), the Potency is reported as inconclusive [activator, partial curve, poor fit]. For `C=CCn1c(SCC(=O)N2CCOCC2)nc2sc3c(c2c1=O)CCCC3`, the Potency was inconclusive [activator, single point]. With `COc1ccc(-c2c(C(C)=O)c(C)nc3sc4c(=N)n(N)cnc4c23)cc1` the Potency was inconclusive [activator, partial curve].
